Results published in article PMC4852768.
No constants are given. Whether binding was seen depends on the method and setting. Binding seen in cells or lysates may run through a third protein. Some results given as binding are weak or reduced against the parent protein; the word gives no strength. For some of these results: Where a sequence is shown, tags or fusion partners need not be part of it.

By UniProt entry, the sequences of proteins in these tests, tags left out.
UniProt P35385: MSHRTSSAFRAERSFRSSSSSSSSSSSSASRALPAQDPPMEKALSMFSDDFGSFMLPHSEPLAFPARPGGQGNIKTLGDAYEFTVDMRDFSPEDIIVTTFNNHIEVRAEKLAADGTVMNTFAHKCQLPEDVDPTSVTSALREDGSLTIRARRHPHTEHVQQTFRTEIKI

T1: HA-FLNC-C, FLNC C-terminal wild type (Ig-like domains 19-24, G2133-P2726) (UniProt Q8VHX6)
T1 sequence: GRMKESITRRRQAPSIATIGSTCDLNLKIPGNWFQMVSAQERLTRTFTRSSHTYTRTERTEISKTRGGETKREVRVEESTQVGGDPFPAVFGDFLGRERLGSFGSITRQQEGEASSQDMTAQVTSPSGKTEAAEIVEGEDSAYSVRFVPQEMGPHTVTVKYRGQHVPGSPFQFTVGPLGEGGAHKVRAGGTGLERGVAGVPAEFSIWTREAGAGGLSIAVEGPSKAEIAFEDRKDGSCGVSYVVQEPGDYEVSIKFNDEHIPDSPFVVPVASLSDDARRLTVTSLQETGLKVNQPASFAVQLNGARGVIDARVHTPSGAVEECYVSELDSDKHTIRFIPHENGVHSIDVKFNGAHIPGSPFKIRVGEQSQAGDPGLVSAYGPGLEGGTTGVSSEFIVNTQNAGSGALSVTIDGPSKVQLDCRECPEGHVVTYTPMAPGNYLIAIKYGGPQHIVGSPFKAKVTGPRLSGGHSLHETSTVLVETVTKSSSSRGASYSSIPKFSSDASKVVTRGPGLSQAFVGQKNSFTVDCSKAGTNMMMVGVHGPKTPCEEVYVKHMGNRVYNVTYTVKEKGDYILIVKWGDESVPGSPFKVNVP

T2: HA-M2670D, FLNC-C with the point mutation M2670D (G2133-P2726) (UniProt Q8VHX6)
T2 sequence: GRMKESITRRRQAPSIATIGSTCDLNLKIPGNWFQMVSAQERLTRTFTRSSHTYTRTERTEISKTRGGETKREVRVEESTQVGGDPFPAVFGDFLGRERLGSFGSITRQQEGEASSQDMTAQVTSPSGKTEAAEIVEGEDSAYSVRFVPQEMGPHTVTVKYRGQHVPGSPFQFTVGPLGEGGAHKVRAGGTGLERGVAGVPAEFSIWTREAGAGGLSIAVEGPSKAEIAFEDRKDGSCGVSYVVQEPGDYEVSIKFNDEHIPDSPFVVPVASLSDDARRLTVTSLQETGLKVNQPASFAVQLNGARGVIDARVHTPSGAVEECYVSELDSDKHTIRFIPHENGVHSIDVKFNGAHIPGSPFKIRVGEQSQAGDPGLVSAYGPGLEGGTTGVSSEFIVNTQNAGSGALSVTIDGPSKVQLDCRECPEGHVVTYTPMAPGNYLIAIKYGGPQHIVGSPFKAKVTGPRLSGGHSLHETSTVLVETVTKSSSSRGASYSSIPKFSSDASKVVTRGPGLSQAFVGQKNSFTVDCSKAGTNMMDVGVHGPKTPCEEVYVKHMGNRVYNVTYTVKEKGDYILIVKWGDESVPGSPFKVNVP

T3: HA-W2711X, FLNC-C truncated within Ig-like domain 24 (G2133-W2711) (UniProt Q8VHX6)
T3 sequence: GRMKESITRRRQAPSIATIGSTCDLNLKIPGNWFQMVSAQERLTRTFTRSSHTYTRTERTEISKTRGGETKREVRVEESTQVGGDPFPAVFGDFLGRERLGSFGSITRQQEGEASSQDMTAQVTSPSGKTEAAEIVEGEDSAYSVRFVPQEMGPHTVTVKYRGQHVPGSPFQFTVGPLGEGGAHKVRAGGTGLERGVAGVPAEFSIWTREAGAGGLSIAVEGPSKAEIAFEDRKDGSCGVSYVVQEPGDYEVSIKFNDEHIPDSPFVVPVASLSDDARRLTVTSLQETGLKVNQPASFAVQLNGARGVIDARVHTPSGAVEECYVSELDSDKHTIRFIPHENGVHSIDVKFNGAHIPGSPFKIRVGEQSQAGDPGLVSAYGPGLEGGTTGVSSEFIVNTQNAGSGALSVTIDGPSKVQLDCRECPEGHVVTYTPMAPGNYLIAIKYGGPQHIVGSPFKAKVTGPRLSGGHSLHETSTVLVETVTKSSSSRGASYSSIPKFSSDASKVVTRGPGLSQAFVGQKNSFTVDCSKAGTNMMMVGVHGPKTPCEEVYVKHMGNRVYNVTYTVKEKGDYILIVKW


Assays:
[1] = biological target: T1, HA-FLNC-C, FLNC C-terminal wild type (Ig-like domains 19-24, G2133-P2726); assay: co-IP; HEK293T cells transfected with HA-FLNC constructs, Myc-FLNC-C and HSPB7, lysed in RIPA buffer after 24 h, precipitated with anti-HA affinity gel, western blot
[2] = biological target: T2, HA-M2670D, FLNC-C with the point mutation M2670D (G2133-P2726); assay: as above
[3] = biological target: T3, HA-W2711X, FLNC-C truncated within Ig-like domain 24 (G2133-W2711); assay: as above
[4] = biological target: HSPB7 with knocked-in C-terminal FLAG tag (Flox allele) (mouse (endogenous in diaphragm muscle)) (UniProt P35385); assay: co-IP; diaphragm extracts (500 ug) of Hspb7 Flox/Flox (FLAG knock-in) and wild-type mice incubated with anti-FLAG M2 affinity gel at 4°C overnight, washed with lysis buffer, western blot

binding [1] | binding [2] | binding [3] | binding [4] | Molecule
binds | no binding | no binding |  | HSPB7, full-length mouse cDNA in pcDNA3 (from UniProt P35385 1-169)
 |  |  | binds | filamin C, endogenous in mouse diaphragm muscle (from UniProt Q8VHX6 1-2726)
binds | no binding | no binding |  | Myc-FLNC-C, FLNC C-terminal wild type (Ig-like domains 19-24, G2133-P2726) (domain or fragment, UniProt Q8VHX6 2133-2726) GRMKESITRRRQAPSIATIGSTCDLNLKIPGNWFQMVSAQERLTRTFTRSSHTYTRTERTEISKTRGGETKREVRVEESTQVGGDPFPAVFGDFLGRERLGSFGSITRQQEGEASSQDMTAQVTSPSGKTEAAEIVEGEDSAYSVRFVPQEMGPHTVTVKYRGQHVPGSPFQFTVGPLGEGGAHKVRAGGTGLERGVAGVPAEFSIWTREAGAGGLSIAVEGPSKAEIAFEDRKDGSCGVSYVVQEPGDYEVSIKFNDEHIPDSPFVVPVASLSDDARRLTVTSLQETGLKVNQPASFAVQLNGARGVIDARVHTPSGAVEECYVSELDSDKHTIRFIPHENGVHSIDVKFNGAHIPGSPFKIRVGEQSQAGDPGLVSAYGPGLEGGTTGVSSEFIVNTQNAGSGALSVTIDGPSKVQLDCRECPEGHVVTYTPMAPGNYLIAIKYGGPQHIVGSPFKAKVTGPRLSGGHSLHETSTVLVETVTKSSSSRGASYSSIPKFSSDASKVVTRGPGLSQAFVGQKNSFTVDCSKAGTNMMMVGVHGPKTPCEEVYVKHMGNRVYNVTYTVKEKGDYILIVKWGDESVPGSPFKVNVP
